Measurements reported in the supplement of paper PMC9151546.
Single values are uncertain, as repeats are few or missing.

What was measured:
CHO-K1 [1] = test: relative survival (nuclei to bead ratio vs DMSO control) (% of vehicle control); higher = more surviving cells
Description: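 Flow-cytometric in vitro micronucleus assay (Litron MicroFlow) in CHO-K1 cells in 96-well plates, 19 concentrations (4.5-200 µM, n=1 per concentration). Without S9, cells were exposed for 24 h and sampled at 48 h. With Aroclor 1254-induced rat liver S9, cells were exposed for 3-4 h and sampled at 27-28 h. Read-outs are %MN and %hypodiploid nuclei relative to nucleated events, and relative survival as the nuclei-to-bead ratio versus the 1% DMSO vehicle control (x100).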

CHO-K1 [2] = test: micronucleus frequency (% of nucleated events); higher = more micronuclei (genotoxic)
CHO-K1 [3] = test: hypodiploid nuclei frequency (% of nucleated events); higher = more hypodiploid events (aneugenic)
[4] = concentration: 4.5 (µM), S9 metabolic activation: with S9, exposure time: 3-4 hours
[5] = concentration: 4.5 (µM), S9 metabolic activation: without S9, exposure time: 24 hours
[6] = concentration: 5.63 (µM), S9 metabolic activation: with S9, exposure time: 3-4 hours
[7] = concentration: 5.63 (µM), S9 metabolic activation: without S9, exposure time: 24 hours
[8] = concentration: 7.04 (µM), S9 metabolic activation: with S9, exposure time: 3-4 hours
[9] = concentration: 7.04 (µM), S9 metabolic activation: without S9, exposure time: 24 hours
[10] = concentration: 8.8 (µM), S9 metabolic activation: with S9, exposure time: 3-4 hours
[11] = concentration: 8.8 (µM), S9 metabolic activation: without S9, exposure time: 24 hours
[12] = concentration: 11 (µM), S9 metabolic activation: with S9, exposure time: 3-4 hours
[13] = concentration: 11 (µM), S9 metabolic activation: without S9, exposure time: 24 hours
[14] = concentration: 13.7 (µM), S9 metabolic activation: with S9, exposure time: 3-4 hours
[15] = concentration: 13.7 (µM), S9 metabolic activation: without S9, exposure time: 24 hours
[16] = concentration: 17.2 (µM), S9 metabolic activation: with S9, exposure time: 3-4 hours
[17] = concentration: 17.2 (µM), S9 metabolic activation: without S9, exposure time: 24 hours
[18] = concentration: 21.5 (µM), S9 metabolic activation: with S9, exposure time: 3-4 hours
[19] = concentration: 21.5 (µM), S9 metabolic activation: without S9, exposure time: 24 hours
[20] = concentration: 26.8 (µM), S9 metabolic activation: with S9, exposure time: 3-4 hours
[21] = concentration: 26.8 (µM), S9 metabolic activation: without S9, exposure time: 24 hours
[22] = concentration: 33.6 (µM), S9 metabolic activation: with S9, exposure time: 3-4 hours
[23] = concentration: 33.6 (µM), S9 metabolic activation: without S9, exposure time: 24 hours
[24] = concentration: 41.9 (µM), S9 metabolic activation: with S9, exposure time: 3-4 hours
[25] = concentration: 41.9 (µM), S9 metabolic activation: without S9, exposure time: 24 hours
[26] = concentration: 52.4 (µM), S9 metabolic activation: with S9, exposure time: 3-4 hours
[27] = concentration: 52.4 (µM), S9 metabolic activation: without S9, exposure time: 24 hours
[28] = concentration: 65.5 (µM), S9 metabolic activation: with S9, exposure time: 3-4 hours
[29] = concentration: 65.5 (µM), S9 metabolic activation: without S9, exposure time: 24 hours
[30] = concentration: 81.9 (µM), S9 metabolic activation: with S9, exposure time: 3-4 hours
[31] = concentration: 81.9 (µM), S9 metabolic activation: without S9, exposure time: 24 hours
[32] = concentration: 102 (µM), S9 metabolic activation: with S9, exposure time: 3-4 hours
[33] = concentration: 102 (µM), S9 metabolic activation: without S9, exposure time: 24 hours
[34] = concentration: 128 (µM), S9 metabolic activation: with S9, exposure time: 3-4 hours
[35] = concentration: 128 (µM), S9 metabolic activation: without S9, exposure time: 24 hours
[36] = concentration: 160 (µM), S9 metabolic activation: with S9, exposure time: 3-4 hours
[37] = concentration: 160 (µM), S9 metabolic activation: without S9, exposure time: 24 hours
[38] = concentration: 200 (µM), S9 metabolic activation: with S9, exposure time: 3-4 hours
[39] = concentration: 200 (µM), S9 metabolic activation: without S9, exposure time: 24 hours
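For hypodiploid nuclei frequency (% of nucleated events) in this document: hypodiploid nuclei gated on a flow cytometer with 488 nm excitation after SYTOX Green staining, cultures at 37 °C, positive controls vinblastine without S9 and cyclophosphamide with S9.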
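For micronucleus frequency (% of nucleated events) in this document: cells lysed with nuclei stained by SYTOX Green, then micronucleus-gated events counted against nucleated events by flow cytometry with 488 nm excitation.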
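For relative survival (nuclei to bead ratio vs DMSO control) in this document: Lysed-cell nuclei stained with SYTOX Green and counted against counting beads by flow cytometry at 488 nm excitation, with vinblastine (no S9) and cyclophosphamide (plus S9) as positive controls.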

Oc1cccc(O)c1 [Resorcinol]
relative survival (CHO-K1 [1]; [4]): 63.6
relative survival (CHO-K1 [1]; [5]): 118
relative survival (CHO-K1 [1]; [6]): 71.8
relative survival (CHO-K1 [1]; [7]): 90.6
relative survival (CHO-K1 [1]; [8]): 102
relative survival (CHO-K1 [1]; [9]): 97.6
relative survival (CHO-K1 [1]; [10]): 101
relative survival (CHO-K1 [1]; [11]): 107
relative survival (CHO-K1 [1]; [12]): 82.8
relative survival (CHO-K1 [1]; [13]): 88.2
relative survival (CHO-K1 [1]; [14]): 91.7
relative survival (CHO-K1 [1]; [15]): 85.1
relative survival (CHO-K1 [1]; [16]): 110
relative survival (CHO-K1 [1]; [17]): 81.2
relative survival (CHO-K1 [1]; [18]): 122
relative survival (CHO-K1 [1]; [19]): 86.5
relative survival (CHO-K1 [1]; [20]): 94.5
relative survival (CHO-K1 [1]; [21]): 72.7
relative survival (CHO-K1 [1]; [22]): 83.7
relative survival (CHO-K1 [1]; [23]): 73.5
relative survival (CHO-K1 [1]; [24]): 53
relative survival (CHO-K1 [1]; [25]): 81.9
relative survival (CHO-K1 [1]; [26]): 60.6
relative survival (CHO-K1 [1]; [27]): 58.7
relative survival (CHO-K1 [1]; [28]): 69.2
relative survival (CHO-K1 [1]; [29]): 65.7
relative survival (CHO-K1 [1]; [30]): 62
relative survival (CHO-K1 [1]; [31]): 53.4
relative survival (CHO-K1 [1]; [32]): 61.8
relative survival (CHO-K1 [1]; [33]): 56.7
relative survival (CHO-K1 [1]; [34]): 77
relative survival (CHO-K1 [1]; [35]): 56.6
relative survival (CHO-K1 [1]; [36]): 81.4
relative survival (CHO-K1 [1]; [37]): 68.6
relative survival (CHO-K1 [1]; [38]): 84.1
relative survival (CHO-K1 [1]; [39]): 72.7
micronucleus frequency (CHO-K1 [2]; [4]): 1.5%
micronucleus frequency (CHO-K1 [2]; [5]): 1.36%
micronucleus frequency (CHO-K1 [2]; [6]): 1.4%
micronucleus frequency (CHO-K1 [2]; [7]): 1.44%
micronucleus frequency (CHO-K1 [2]; [8]): 1.48%
micronucleus frequency (CHO-K1 [2]; [9]): 1.22%
micronucleus frequency (CHO-K1 [2]; [10]): 1.08%
micronucleus frequency (CHO-K1 [2]; [11]): 0.9%
micronucleus frequency (CHO-K1 [2]; [12]): 1.38%
micronucleus frequency (CHO-K1 [2]; [13]): 1.64%
micronucleus frequency (CHO-K1 [2]; [14]): 1.48%
micronucleus frequency (CHO-K1 [2]; [15]): 2.76%
micronucleus frequency (CHO-K1 [2]; [16]): 2.02%
micronucleus frequency (CHO-K1 [2]; [17]): 1.98%
micronucleus frequency (CHO-K1 [2]; [18]): 1.92%
micronucleus frequency (CHO-K1 [2]; [19]): 2.18%
micronucleus frequency (CHO-K1 [2]; [20]): 2%
micronucleus frequency (CHO-K1 [2]; [21]): 2%
micronucleus frequency (CHO-K1 [2]; [22]): 1.52%
micronucleus frequency (CHO-K1 [2]; [23]): 2.82%
micronucleus frequency (CHO-K1 [2]; [24]): 1.58%
micronucleus frequency (CHO-K1 [2]; [25]): 1.74%
micronucleus frequency (CHO-K1 [2]; [26]): 0.96%
micronucleus frequency (CHO-K1 [2]; [27]): 2.1%
micronucleus frequency (CHO-K1 [2]; [28]): 1.02%
micronucleus frequency (CHO-K1 [2]; [29]): 1.42%
micronucleus frequency (CHO-K1 [2]; [30]): 1.4%
micronucleus frequency (CHO-K1 [2]; [31]): 1.08%
micronucleus frequency (CHO-K1 [2]; [32]): 1.4%
micronucleus frequency (CHO-K1 [2]; [33]): 1.9%
micronucleus frequency (CHO-K1 [2]; [34]): 1.66%
micronucleus frequency (CHO-K1 [2]; [35]): 2.56%
micronucleus frequency (CHO-K1 [2]; [36]): 1.3%
micronucleus frequency (CHO-K1 [2]; [37]): 2.6%
micronucleus frequency (CHO-K1 [2]; [38]): 1.82%
micronucleus frequency (CHO-K1 [2]; [39]): 2.66%
hypodiploid nuclei frequency (CHO-K1 [3]; [4]): 0.16%
hypodiploid nuclei frequency (CHO-K1 [3]; [5]): 0.44%
hypodiploid nuclei frequency (CHO-K1 [3]; [6]): 0.2%
hypodiploid nuclei frequency (CHO-K1 [3]; [7]): 0.54%
hypodiploid nuclei frequency (CHO-K1 [3]; [8]): 0.28%
hypodiploid nuclei frequency (CHO-K1 [3]; [9]): 0.52%
hypodiploid nuclei frequency (CHO-K1 [3]; [10]): 0.22%
hypodiploid nuclei frequency (CHO-K1 [3]; [11]): 0.58%
hypodiploid nuclei frequency (CHO-K1 [3]; [12]): 0.26%
hypodiploid nuclei frequency (CHO-K1 [3]; [13]): 0.7%
hypodiploid nuclei frequency (CHO-K1 [3]; [14]): 0.34%
hypodiploid nuclei frequency (CHO-K1 [3]; [15]): 0.86%
hypodiploid nuclei frequency (CHO-K1 [3]; [16]): 0.2%
hypodiploid nuclei frequency (CHO-K1 [3]; [17]): 0.9%
hypodiploid nuclei frequency (CHO-K1 [3]; [18]): 0.16%
hypodiploid nuclei frequency (CHO-K1 [3]; [19]): 0.76%
hypodiploid nuclei frequency (CHO-K1 [3]; [20]): 0.44%
hypodiploid nuclei frequency (CHO-K1 [3]; [21]): 0.56%
hypodiploid nuclei frequency (CHO-K1 [3]; [22]): 0.2%
hypodiploid nuclei frequency (CHO-K1 [3]; [23]): 0.5%
hypodiploid nuclei frequency (CHO-K1 [3]; [24]): 0.32%
hypodiploid nuclei frequency (CHO-K1 [3]; [25]): 0.36%
hypodiploid nuclei frequency (CHO-K1 [3]; [26]): 0.16%
hypodiploid nuclei frequency (CHO-K1 [3]; [27]): 0.58%
hypodiploid nuclei frequency (CHO-K1 [3]; [28]): 0.24%
hypodiploid nuclei frequency (CHO-K1 [3]; [29]): 0.44%
hypodiploid nuclei frequency (CHO-K1 [3]; [30]): 0.32%
hypodiploid nuclei frequency (CHO-K1 [3]; [31]): 0.58%
hypodiploid nuclei frequency (CHO-K1 [3]; [32]): 0.34%
hypodiploid nuclei frequency (CHO-K1 [3]; [33]): 0.44%
hypodiploid nuclei frequency (CHO-K1 [3]; [34]): 0.38%
hypodiploid nuclei frequency (CHO-K1 [3]; [35]): 0.6%
hypodiploid nuclei frequency (CHO-K1 [3]; [36]): 0.32%
hypodiploid nuclei frequency (CHO-K1 [3]; [37]): 1.04%
hypodiploid nuclei frequency (CHO-K1 [3]; [38]): 0.16%
hypodiploid nuclei frequency (CHO-K1 [3]; [39]): 0.94%
